For 24 compounds, cell count results are on record in the supplement of paper PMC4604168 (melanoma cell lines).

The list shows a part of the results. Repeats are few or missing, and single values can be far off.
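Also: cell number obtained by counting DAPI-stained nuclei in high-throughput microscope images with image analysis software, screen run in 1,536-well plates.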

The test system of this test is COLO800. The test can be described thus: cell count relative to DMSO control; melanoma cells; higher = more viable cells. The following applies: library dose: low library concentration; 72 h.
With `N#CC[C@H](C1CCCC1)n1cc(-c2ncnc3[nH]ccc23)cn1` [ruxolitinib] + C=CCn1c(=O)c2cnc(Nc3ccc(N4CCN(C)CC4)cc3)nc2n1-c1cccc(C(C)(C)O)n1 [MK1775] (first compound 1 µM, partner dose 0.02 µM), the cell count was found to be 104%. To `CC[C@]1(O)C[C@H]2CN(CCc3c([nH]c4ccccc34)[C@@](C(=O)OC)(c3cc4c(cc3OC)N(C=O)[C@H]3[C@@](O)(C(=O)OC)[C@H](OC(C)=O)[C@]5(CC)C=CCN6CC[C@]43[C@@H]65)C2)C1` [vincristine] + C[C@@H]1CCN(C(=O)CC#N)C[C@@H]1N(C)c1ncnc2[nH]ccc12 [CP690550] (first compound 0.0001 µM, partner dose 1 µM) belongs 89.6%; to `N#CC[C@H](C1CCCC1)n1cc(-c2ncnc3[nH]ccc23)cn1` [ruxolitinib] + O=C1NC(=O)/C(=C/c2ccc(-c3ccc(F)cc3O)o2)S1 [AS252424] (first compound 1 µM, partner dose 1 µM), 108%; to `CC[C@]1(O)C[C@H]2CN(CCc3c([nH]c4ccccc34)[C@@](C(=O)OC)(c3cc4c(cc3OC)N(C=O)[C@H]3[C@@](O)(C(=O)OC)[C@H](OC(C)=O)[C@]5(CC)C=CCN6CC[C@]43[C@@H]65)C2)C1` [vincristine] + COc1ccc(-c2ccc3c(N4CCOCC4)nc(N4C[C@@H](C)O[C@@H](C)C4)nc3n2)cc1CO [KU0063794] (first compound 0.0001 µM, partner dose 0.02 µM), 84.4%. To `N#CC[C@H](C1CCCC1)n1cc(-c2ncnc3[nH]ccc23)cn1` [ruxolitinib] + CCN(CC)CCCCNc1ncc2cc(-c3cc(OC)cc(OC)c3)c(NC(=O)NC(C)(C)C)nc2n1 [PD173074] (first compound 1 µM, partner dose 0.1 µM) belongs 123%; to `N#CC[C@H](C1CCCC1)n1cc(-c2ncnc3[nH]ccc23)cn1` [ruxolitinib] + O=C(Nc1cccc(Cl)c1)Nc1ncc(CCNc2ncnc3ccsc23)s1 [SNS314] (first compound 1 µM, partner dose 0.0008 µM), 177%. As for `N#CC[C@H](C1CCCC1)n1cc(-c2ncnc3[nH]ccc23)cn1` [ruxolitinib] + NC(=O)Nc1cc(-c2cccc(F)c2)sc1C(=O)N[C@H]1CCCNC1 [AZD7762] (first compound 1 µM, partner dose 0.02 µM), the cell count was 94.8%.

`N#CC[C@H](C1CCCC1)n1cc(-c2ncnc3[nH]ccc23)cn1` [ruxolitinib] + CC(C)CCN1c2nc(Nc3cc(F)c(O)c(F)c3)ncc2N(C)C(=O)C1C [BID1870] (first compound 1 µM, partner dose 0.2 µM) showed a cell count of 75.3%.

As for `N#CC[C@H](C1CCCC1)n1cc(-c2ncnc3[nH]ccc23)cn1` [ruxolitinib] + c1cc(-c2cnn3cc(-c4ccc(OCCN5CCCCC5)cc4)cnc23)ccn1 [Dorsomorphin] (first compound 1 µM, partner dose 0.4 µM), the cell count came out at 170%. In turn, `Cc1cc(Nc2cc(N3CCN(C)CC3)nc(Sc3ccc(NC(=O)C4CC4)cc3)n2)n[nH]1` [Tozasertib] + Oc1cc(-c2nc(-c3ccccc3)[nH]c2-c2ccncc2)ccc1Cl [L779450] (first compound 0.006 µM, partner dose 0.2 µM) returned a cell count of 77.1%. To `N#CC[C@H](C1CCCC1)n1cc(-c2ncnc3[nH]ccc23)cn1` [ruxolitinib] + CC1(C)NC(=O)N(c2ccc([N+](=O)[O-])c(C(F)(F)F)c2)C1=O [nilutamide] (first compound 1 µM, partner dose 1 µM) belongs 136%; to `Cc1cc(Nc2cc(N3CCN(C)CC3)nc(Sc3ccc(NC(=O)C4CC4)cc3)n2)n[nH]1` [Tozasertib] + CC(C)CCN1c2nc(Nc3cc(F)c(O)c(F)c3)ncc2N(C)C(=O)C1C [BID1870] (first compound 0.006 µM, partner dose 0.2 µM), 105%; to `N#CC[C@H](C1CCCC1)n1cc(-c2ncnc3[nH]ccc23)cn1` [ruxolitinib] + COc1ccc(-c2ccc3c(N4CCOCC4)nc(N4C[C@@H](C)O[C@@H](C)C4)nc3n2)cc1CO [KU0063794] (first compound 1 µM, partner dose 0.02 µM), 98.9%. The compound `Cc1cc(Nc2cc(N3CCN(C)CC3)nc(Sc3ccc(NC(=O)C4CC4)cc3)n2)n[nH]1` [Tozasertib] + Cc1cc([N+](=O)[O-])ccc1NS(=O)(=O)c1cc(Cl)ccc1Cl [FH535] (first compound 0.006 µM, partner dose 1 µM) yielded a cell count of 66%. On to `CC[C@]1(O)C[C@H]2CN(CCc3c([nH]c4ccccc34)[C@@](C(=O)OC)(c3cc4c(cc3OC)N(C=O)[C@H]3[C@@](O)(C(=O)OC)[C@H](OC(C)=O)[C@]5(CC)C=CCN6CC[C@]43[C@@H]65)C2)C1` [vincristine] + c1cc(-c2cnn3cc(-c4ccc(OCCN5CCCCC5)cc4)cnc23)ccn1 [Dorsomorphin] (first compound 0.0001 µM, partner dose 0.4 µM), for which the cell count stood at 99%.

`N#CC[C@H](C1CCCC1)n1cc(-c2ncnc3[nH]ccc23)cn1` [ruxolitinib] + Oc1nc(-c2ccc(C(F)(F)F)cc2)nc2c1CSCC2 [XAV939] (first compound 1 µM, partner dose 2 µM) had a cell count of 98.8%.

Turning to `Cc1cc(Nc2cc(N3CCN(C)CC3)nc(Sc3ccc(NC(=O)C4CC4)cc3)n2)n[nH]1` [Tozasertib] + Cn1cncc1[C@@](N)(c1ccc(Cl)cc1)c1ccc2c(c1)c(-c1cccc(Cl)c1)cc(=O)n2C [tipifarnib] (first compound 0.006 µM, partner dose 0.01 µM), the cell count is 101%.

As for `CC[C@]1(O)C[C@H]2CN(CCc3c([nH]c4ccccc34)[C@@](C(=O)OC)(c3cc4c(cc3OC)N(C=O)[C@H]3[C@@](O)(C(=O)OC)[C@H](OC(C)=O)[C@]5(CC)C=CCN6CC[C@]43[C@@H]65)C2)C1` [vincristine] + NC(=O)Nc1cc(-c2cccc(F)c2)sc1C(=O)N[C@H]1CCCNC1 [AZD7762] (first compound 0.0001 µM, partner dose 0.02 µM), the cell count is 89.8%. To `Cc1cc(Nc2cc(N3CCN(C)CC3)nc(Sc3ccc(NC(=O)C4CC4)cc3)n2)n[nH]1` [Tozasertib] + O=C1NC(=O)/C(=C/c2ccc(-c3ccc(F)cc3O)o2)S1 [AS252424] (first compound 0.006 µM, partner dose 1 µM) belongs 83.9%; to `CC[C@]1(O)C[C@H]2CN(CCc3c([nH]c4ccccc34)[C@@](C(=O)OC)(c3cc4c(cc3OC)N(C=O)[C@H]3[C@@](O)(C(=O)OC)[C@H](OC(C)=O)[C@]5(CC)C=CCN6CC[C@]43[C@@H]65)C2)C1` [vincristine] + Cc1cc(N2CCOCC2)cc2[nH]c(-c3c(NC[C@@H](O)c4cccc(Cl)c4)cc[nH]c3=O)nc12 [BMS536924] (first compound 0.0001 µM, partner dose 0.2 µM), 45.1%; to `CC[C@]1(O)C[C@H]2CN(CCc3c([nH]c4ccccc34)[C@@](C(=O)OC)(c3cc4c(cc3OC)N(C=O)[C@H]3[C@@](O)(C(=O)OC)[C@H](OC(C)=O)[C@]5(CC)C=CCN6CC[C@]43[C@@H]65)C2)C1` [vincristine] + NCC(=O)Nc1ccc(-n2nc(C(F)(F)F)cc2-c2ccc3c(ccc4ccccc43)c2)cc1 [OSU03012] (first compound 0.0001 µM, partner dose 1 µM), 146%. To `Cc1cc(Nc2cc(N3CCN(C)CC3)nc(Sc3ccc(NC(=O)C4CC4)cc3)n2)n[nH]1` [Tozasertib] + Oc1nc(-c2ccc(C(F)(F)F)cc2)nc2c1CSCC2 [XAV939] (first compound 0.006 µM, partner dose 2 µM) belongs 54.1%; to `CC[C@]1(O)C[C@H]2CN(CCc3c([nH]c4ccccc34)[C@@](C(=O)OC)(c3cc4c(cc3OC)N(C=O)[C@H]3[C@@](O)(C(=O)OC)[C@H](OC(C)=O)[C@]5(CC)C=CCN6CC[C@]43[C@@H]65)C2)C1` [vincristine] + COC(=O)c1sccc1S(=O)(=O)Nc1ccc(Nc2ccccc2)cc1OC [GSK0660] (first compound 0.0001 µM, partner dose 1 µM), 119%; to `Cc1cc(Nc2cc(N3CCN(C)CC3)nc(Sc3ccc(NC(=O)C4CC4)cc3)n2)n[nH]1` [Tozasertib] + N#Cc1c(O)c2c(-c3ccc(-c4ccccc4O)cc3)csc2[nH]c1=O [A769662] (first compound 0.006 µM, partner dose 2 µM), 75.7%.
